From PubChem BioAssay (NCI) come the findings set out here.

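Protocol summary: plate cells (96-well), add compound at 5 concentrations, incubate 48 h, interpolate endpoints linearly. GI50 is the concentration that inhibits growth by half. TGI denotes the concentration required for complete inhibition of growth.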

The assay has as its system NCI-H322M lung. Kind of assay: NCI anticancer screen, dose series, 48 h.
For the compound `CCCCSc1nc(Nc2ccc(/C(C)=N/NC(N)=S)cc2)c(C#N)c(-c2ccc(F)cc2)n1`, the GI50 is 2.5 µM and the TGI turned out to be 16.8 µM.
The matching figures for `C/C(=N\N=C1/C(=O)Nc2ccc(Cl)cc21)c1ccc2c(c1)Nc1ccccc1S2`: 12.5 µM and 43.2 µM.
In the same order, the values of `COc1ccccc1[C@H]1C(C(=O)c2ccc(O)cc2)C2(N[C@@H]1c1ccccc1)C(=O)Nc1ccc(Br)cc12` (some centres not stated) are 7.1 µM and 14.2 µM.
The matching figures for `Cc1ccc(-c2cc(C(=O)N=Nc3c(O)[nH]c4ccccc34)c3ccccc3n2)cc1`: 4.95 µM and 27.1 µM.
Take `CS(=O)(=O)Nc1cncc(-c2ccc3ncnc(NCc4ccccc4)c3c2)c1`: the GI50 was 12 µM and the TGI stood at 26.8 µM.
The matching figures for `COc1ccc2ccccc2c1/C=C1\SC(=Nc2ccc(O)cc2)NC1=O`: 2.15 µM and 15.9 µM.
